Data taken from the BET-seq Pho4 binding data (Le et al. 2018).
Some of the results follow. Values were computed here from the reads of four pooled replicates and scatter widely.

biological target: T1, Pho4 (S. cerevisiae) (UniProt P07270); assay: relative binding free energy (BET-seq); higher = weaker binding; conditions: reference: library average
T1 sequence: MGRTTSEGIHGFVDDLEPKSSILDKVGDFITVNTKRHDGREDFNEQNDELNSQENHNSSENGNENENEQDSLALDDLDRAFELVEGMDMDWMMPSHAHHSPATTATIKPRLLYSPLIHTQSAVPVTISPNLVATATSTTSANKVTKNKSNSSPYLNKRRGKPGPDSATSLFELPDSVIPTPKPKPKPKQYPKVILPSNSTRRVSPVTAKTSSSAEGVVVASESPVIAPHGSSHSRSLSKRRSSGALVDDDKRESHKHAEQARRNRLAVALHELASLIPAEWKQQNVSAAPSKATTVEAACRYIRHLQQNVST

| Sequence | relative binding free energy |
| --- | --- |
| CTAGGCACGTGAGGGC | -0.03 kcal/mol |
| TGGGACACGTGTGCTA | -0.05 kcal/mol |
| TCGTTCACGTGAGGTC | 0.51 kcal/mol |
| GGGTTCACGTGGACTT | 0.32 kcal/mol |
| GTTGGCACGTGGCAAA | -0.07 kcal/mol |
| TAGGGCACGTGGGGAT | -0.08 kcal/mol |
| TGCGGCACGTGGTGGC | -0.14 kcal/mol |
| GTAGGCACGTGAGTTA | 0.17 kcal/mol |
| TTTGGCACGTGTGCGA | -0.05 kcal/mol |
| GAGGGCACGTGCGTGC | -0.11 kcal/mol |
| GGTCTCACGTGGGTGA | 0.21 kcal/mol |
| TTAATCACGTGGGAGG | 0.01 kcal/mol |
| GGTGACACGTGTAATG | 0.03 kcal/mol |
| GAGGGCACGTGGCAGT | -0.16 kcal/mol |
| GGTGCCACGTGATGGG | 0.12 kcal/mol |
| TGATTCACGTGTTGGG | 0.27 kcal/mol |
| TTTTGCACGTGCTTTT | -0.01 kcal/mol |
| TTACGCACGTGGTGAG | -0.17 kcal/mol |
| TGATTCACGTGCAGGT | 0.25 kcal/mol |
| GTTTTCACGTGCTCGG | 0.27 kcal/mol |
| TCCTTCACGTGGGTGG | 0.07 kcal/mol |
| ATGTTCACGTGGAATG | 0.21 kcal/mol |
| TCAGGCACGTGTGCGG | -0.16 kcal/mol |
| TGAGGCACGTGCAGGC | -0.05 kcal/mol |
| CGGGTCACGTGGAGAG | 0.08 kcal/mol |

| Sequence | relative binding free energy |
| --- | --- |
| GGCGTCACGTGTGGGG | 0.14 kcal/mol |
| ATGTGCACGTGGCATT | -0.23 kcal/mol |
| TGAGTCACGTGGGTTA | 0.12 kcal/mol |
| AGTGCCACGTGTGAGG | 0.14 kcal/mol |
| GGAGTCACGTGGTACG | 0.12 kcal/mol |
| TGGGTCACGTGTGTTA | 0.1 kcal/mol |
| TAATTCACGTGATAGG | 0.25 kcal/mol |
| AGAGACACGTGAGTTT | 0.35 kcal/mol |
| TACAGCACGTGTAGGG | -0.16 kcal/mol |
| AAATGCACGTGAGGGA | 0.19 kcal/mol |
| GTTGTCACGTGGATGC | 0.27 kcal/mol |
| CGCATCACGTGTGGGT | 0.12 kcal/mol |
| GTGAGCACGTGCAGGG | -0.19 kcal/mol |
| TTCTTCACGTGTTCGT | 0.25 kcal/mol |
| AGCATCACGTGTAGTT | 0.24 kcal/mol |
| TTTTACACGTGGCTAG | 0.13 kcal/mol |
| TCTATCACGTGGTATT | -0.03 kcal/mol |
| AATCGCACGTGGAGGT | -0.01 kcal/mol |
| CAGGTCACGTGAGGCG | 0.21 kcal/mol |
| GATTGCACGTGGATTA | 0.1 kcal/mol |
| GTATGCACGTGGGGCA | -0.18 kcal/mol |
| AGCGTCACGTGTGGGC | 0.08 kcal/mol |
| AGTATCACGTGTTAGG | 0.34 kcal/mol |
| GTATTCACGTGGTTAG | 0.22 kcal/mol |
| TAGGTCACGTGGTAAG | 0.14 kcal/mol |

| Sequence | relative binding free energy |
| --- | --- |
| CTTGTCACGTGTGGGT | 0.16 kcal/mol |
| TTAGACACGTGGGAGT | -0.04 kcal/mol |
| GTGTGCACGTGAGCGT | 0.22 kcal/mol |
| GGTACCACGTGTGATT | 0.13 kcal/mol |
| CGTTTCACGTGTTAGG | 0.38 kcal/mol |
| GTATTCACGTGGGGCC | 0.16 kcal/mol |
| GGCGTCACGTGTGTTA | 0.12 kcal/mol |
| TTGCTCACGTGAGATT | 0.4 kcal/mol |
| GGGAGCACGTGAGATT | 0.22 kcal/mol |
| TAAGGCACGTGTTTTC | -0.06 kcal/mol |
| TTATTCACGTGGATGC | 0.3 kcal/mol |
| GGGGGCACGTGGAAAT | 0.02 kcal/mol |
| GGATACACGTGAATGT | 0.3 kcal/mol |
| AGGAACACGTGTAGGA | 0.08 kcal/mol |
| AGGTGCACGTGAGTTC | 0.22 kcal/mol |
| CGGTACACGTGGTTGA | -0.08 kcal/mol |
| TTTTTCACGTGGGTTC | 0.15 kcal/mol |
| TGGGACACGTGTTCAG | 0.01 kcal/mol |
| GTAGTCACGTGGATTA | 0.32 kcal/mol |
| TGTGGCACGTGATCCG | 0.09 kcal/mol |
| GTTTACACGTGAATTG | 0.45 kcal/mol |
| GTATTCACGTGCTGAG | 0.24 kcal/mol |
| GTTTCCACGTGGTGGC | 0.01 kcal/mol |
| GGTAGCACGTGGGGGG | -0.15 kcal/mol |
| TCGTACACGTGGAAGG | 0.22 kcal/mol |

| Sequence | relative binding free energy |
| --- | --- |
| TTTGGCACGTGAAGTT | 0.12 kcal/mol |
| TAGTCCACGTGTTAGT | 0.08 kcal/mol |
| TGTATCACGTGAATAT | 0.32 kcal/mol |
| GCGTACACGTGGTAGA | 0.1 kcal/mol |
| ATTTACACGTGTAGTA | 0.07 kcal/mol |
| GGGTCCACGTGTAAAG | 0.12 kcal/mol |
| TGTGGCACGTGGGCTT | -0.15 kcal/mol |
| ATAGTCACGTGGTTGT | 0.09 kcal/mol |
| TATGACACGTGGGATT | -0.05 kcal/mol |
| TTGTGCACGTGCTAGG | -0.07 kcal/mol |
| CTTGTCACGTGGTACG | 0.15 kcal/mol |
| AGTGTCACGTGGGTGC | -0.11 kcal/mol |
| GAGGTCACGTGACGGT | 0.13 kcal/mol |
| ATGTACACGTGAATGG | 0.22 kcal/mol |
| ATTAGCACGTGTTAGC | -0.06 kcal/mol |
| TATTACACGTGTTGTC | -0.06 kcal/mol |
| AGTATCACGTGGAGTA | 0.14 kcal/mol |
| GAGTTCACGTGTCTGG | 0.41 kcal/mol |
| AGGGTCACGTGGTGCA | -0.05 kcal/mol |
| TTTGGCACGTGAGCTA | -0.08 kcal/mol |
| CTTGTCACGTGAAATT | 0.45 kcal/mol |
| AAAGGCACGTGTGTTA | -0.1 kcal/mol |
| TATTACACGTGGTAAG | 0.19 kcal/mol |
| TGGGACACGTGTGATT | 0.13 kcal/mol |
| GAAAACACGTGTTGGA | 0.11 kcal/mol |

| Sequence | relative binding free energy |
| --- | --- |
| TATAACACGTGCATGG | -0.01 kcal/mol |
| GTATACACGTGTGATG | 0.02 kcal/mol |
| TGTCACACGTGTGATT | -0.01 kcal/mol |
| ATATGCACGTGATTTA | 0.04 kcal/mol |
| CAGGTCACGTGGTAGA | 0.13 kcal/mol |
| TTAATCACGTGGTAGC | 0.13 kcal/mol |
| CGCAGCACGTGGGAGG | -0.31 kcal/mol |
| AAGTTCACGTGCGAGG | 0.2 kcal/mol |
| GAATACACGTGGGTGA | 0.02 kcal/mol |
| TAGCGCACGTGTATAT | -0.02 kcal/mol |
| TCAATCACGTGTGGGA | 0.26 kcal/mol |
| GTTCGCACGTGGAGGA | -0.05 kcal/mol |
| CTCTGCACGTGAGGGT | 0.2 kcal/mol |
| GGTATCACGTGGGGGT | 0.07 kcal/mol |
| GTATACACGTGGATAA | 0.17 kcal/mol |
| TAGGTCACGTGAACTT | 0.26 kcal/mol |
| TGCGTCACGTGTGGAC | 0.24 kcal/mol |
| ATGTGCACGTGCTTGC | 0.03 kcal/mol |
| TTACTCACGTGTGTCT | 0.17 kcal/mol |
| GGGTGCACGTGCAGTT | 0.02 kcal/mol |
| AGATGCACGTGGTACG | -0.17 kcal/mol |
| GTGAACACGTGAATGG | 0.41 kcal/mol |
| AGAGTCACGTGGAAAT | 0.38 kcal/mol |
| TAAGTCACGTGTGTAC | 0.14 kcal/mol |
| GGTCGCACGTGTTGGT | 0.09 kcal/mol |

| Sequence | relative binding free energy |
| --- | --- |
| AGGAGCACGTGGGATG | -0.14 kcal/mol |
| TCGTTCACGTGCGGGT | 0.24 kcal/mol |
| TTGGCCACGTGGCGGT | -0.27 kcal/mol |
| CAAGTCACGTGGGCGG | -0.06 kcal/mol |
| GGCGGCACGTGGTATT | 0 kcal/mol |
| TAGGGCACGTGTTGCG | -0.15 kcal/mol |
| TGTAGCACGTGTGAGA | 0 kcal/mol |
| GGGAACACGTGCGGGA | 0.06 kcal/mol |
| TTGGGCACGTGGACGA | 0.02 kcal/mol |
| ATACTCACGTGTGGTT | 0.22 kcal/mol |
| GGGGGCACGTGGCCTA | -0.26 kcal/mol |
| TTCGACACGTGTGGTT | 0.11 kcal/mol |
| GTCAGCACGTGAGGGC | 0.25 kcal/mol |
| CGTGACACGTGTTATT | 0.19 kcal/mol |
| CTGGTCACGTGGTATT | 0.12 kcal/mol |
| TTTGACACGTGCGGCA | -0.01 kcal/mol |
| GTGAGCACGTGTGGCA | -0.16 kcal/mol |
| TGATTCACGTGGAGTG | 0.2 kcal/mol |
| CGGCGCACGTGGTTAG | -0.19 kcal/mol |
| TGGGACACGTGGGCTA | -0.12 kcal/mol |
| GGATGCACGTGTGGAC | 0.08 kcal/mol |
